The RNAGym collection of RNA variant scans (doi:10.7554/elife.90254)
The source gives no read counts; variants with many changes may rest on few reads.

B1: LINE1-mini (parent)
chain: GGCAGAGCUCAACACAGCGUGGCAAAGUGGCUGUGGCUAGACUGCC

Variants of: B1
Test: self-cleavage, relative activity (ratio to wild type); higher = more cleavage; in vitro, sequencing; the parent is a self-cleaving ribozyme

Which self-cleavage does the source give for GGCAGAGCUGAACACAGCCUGGCAAAGUGGCUUUGGUUAGACUGUC [C10G G19C G33U C37U C45U] here?
Its self-cleavage is 0.01.

Which self-cleavage does the source give for GGCAGAACUCAACACAGCAAGGCAAAAUGGCUUUGGCUAGACUGCC [G7A G19A U20A G27A G33U] here?
The self-cleavage was 0.05.

Which self-cleavage does the source give for GGCAGAGAUCAACACAGCCUGGCAAAGUGUCUGUGGCUAGACUGCC [C8A G19C G30U] here?
The self-cleavage was 0.13.

With GGCAAAGCUCAACAAAGGGUGGCAAAGUGGCUGUGGCUAGACUGCC [G5A C15A C18G] as the variant, how does the self-cleavage read?
The self-cleavage was 0.04.

Which self-cleavage does the source give for CGCACAGCUCAACACAUCGUGGCAAAGUGGCUGUGGCUAGACUGCC [G1C G5C G17U] here?
Its self-cleavage is 0.01.

Which self-cleavage does the source give for GGCAGAGCUCAACAGAGCGCGGCAAAGUGGCUGAGACUAAACUGCC [C15G U20C U34A G36A G40A] here?
The self-cleavage was 0.13.

Which self-cleavage does the source give for GGAUAAGCGCAACACAGCGUGGCAAAGUAGCUGUGACUAGACUGCC [C3A A4U G5A U9G G29A G36A] here?
The self-cleavage was 0.47.

For GGCAGAGCUCGACACAGCGUGGCAAAGUGGCUGUGGCUAGACCGGC [A11G U43C C45G], which self-cleavage is on record?
The self-cleavage was 0.

Which self-cleavage does the source give for GGGAGGGCUCAACACAGCGAGGCAAAGUGGCUGUGGCUAGACUGCC [C3G A6G U20A] here?
The self-cleavage was 0.03.

Which self-cleavage does the source give for GGCAGAACUCAACACAGCGUGGCAAAGUGGCUGUAGCUAGACUGAC [G7A G35A C45A] here?
Its self-cleavage is 0.01.

Which self-cleavage does the source give for GGCAGAGCUCAACACAGAGUGGCAAAUUGGCUGUGGCAAGACUGAG [C18A G27U U38A C45A C46G] here?
Its self-cleavage is 0.08.

With GGCAGAGCUCAACACAACGUGGCCAAGUGGCUGUGGCUAGACUGAC [G17A A24C C45A] as the variant, how does the self-cleavage read?
The self-cleavage was 0.03.

For GGCCGAUCUCACCACAGCGUGGCAAAGUGGAUGUGGCUAGACUGCC [A4C G7U A12C C31A], which self-cleavage is on record?
The self-cleavage was 0.01.

For GGCAGAGCUCAGCACAUCGUGGGAAGGUGUCUGUGGCUAGACUGCC [A12G G17U C23G A26G G30U], which self-cleavage is on record?
The self-cleavage was 0.

Which self-cleavage does the source give for GGCAUAGCUCAACACAGCGUGGCAAAGUGGCUGUGGAUUGACUGCG [G5U C37A A39U C46G] here?
The self-cleavage was 0.02.

Which self-cleavage does the source give for GGCAGAGCUCAACACGGCGUGGCAAAGUGACUGUGGCUAGAGUGCC [A16G G30A C42G] here?
The self-cleavage was 0.

With GUCAGUGCGCAACACAGCGUGGCAAAGUGGCUGUGGCUAGGCUGCC [G2U A6U U9G A41G] as the variant, how does the self-cleavage read?
The self-cleavage was 0.06.

For GGCAGAGCUCAACACAGCGAGGCAAAGUGGCUGUGGUGAGACUGCC [U20A C37U U38G], which self-cleavage is on record?
Its self-cleavage is 0.01.

For GUCAGAGCUCAACACAGCGUGGGAAAGUGGCUGUGGCUAGCCAGCC [G2U C23G A41C U43A], which self-cleavage is on record?
Its self-cleavage is 0.01.

For GGCAGAGUUCAACACAGCGUGGCGAAGCGACUGUGGCUAGACUGCC [C8U A24G U28C G30A], which self-cleavage is on record?
Its self-cleavage is 0.02.

For GGAUGAGCUCAACACAGCGUGGCAAAGUGGAUGUGGCUAGACUGCU [C3A A4U C31A C46U], which self-cleavage is on record?
Its self-cleavage is 0.1.

With GGUAGAGCUCAACACAGCGUGGCAAAGUGGCUGUGCUUAGACUGCC [C3U G36C C37U] as the variant, how does the self-cleavage read?
Its self-cleavage is 0.01.

With GGCUGAGCUGAACACAGCCUGGCGAAGUGGCUGUGGCUAGACUGCC [A4U C10G G19C A24G] as the variant, how does the self-cleavage read?
Its self-cleavage is 0.02.

Which self-cleavage does the source give for GGCAGGGCUCAACACCGCGUUGCAAAGUGGCUGUGGCUAGACUGCC [A6G A16C G21U] here?
Its self-cleavage is 0.02.

Which self-cleavage does the source give for GGCAGAGCUCAACACAGUGUGGAAAAAUGGCUUUGGCUAGACUGCC [C18U C23A G27A G33U] here?
Its self-cleavage is 0.37.

For GGCAAAGCUCCACACAGCGUUGCAAAGUGGCUGUUGCUAGACUGCC [G5A A11C G21U G35U], which self-cleavage is on record?
The self-cleavage was 0.1.

For GUCAGAGCUCAACACAGCGUGGCAAACUUGCUGUUGCUAGACUGCC [G2U G27C G29U G35U], which self-cleavage is on record?
The self-cleavage was 0.15.

For GGCAGAUCUCAACACGGCGUGACAAAGUGGCUGUGGCUAGAUUGCA [G7U A16G G22A C42U C46A], which self-cleavage is on record?
The self-cleavage was 0.04.

Which self-cleavage does the source give for GGCUGAGCUCAACACAGUGUGGCAAAGUGGCUGUAGCUAGACUGCC [A4U C18U G35A] here?
Its self-cleavage is 0.05.

Which self-cleavage does the source give for CGCAGAUCUCAACACAUCGUGGCAAAGUGGCUGUGGCUAGACUGCC [G1C G7U G17U] here?
Its self-cleavage is 0.12.

For UGCACAGCUCAACACAGCGUCGCAAAUUGGCUGUGGCUAGACUGCC [G1U G5C G21C G27U], which self-cleavage is on record?
Its self-cleavage is 0.02.

With GACAGAGCACAACACAGCGUGGCAUAGUGCAUGUGGCUAGACUGCU [G2A U9A A25U G30C C31A C46U] as the variant, how does the self-cleavage read?
The self-cleavage was 0.06.

Which self-cleavage does the source give for GGCAGAGCGGAACACUGCGUGGCAGUGUGGCUGUGGCUAGACUGCC [U9G C10G A16U A25G A26U] here?
Its self-cleavage is 0.

Which self-cleavage does the source give for GGCUGAGCUCAACACAGCGUGGCAAAGAGGCUGUGGCUAGACUUUC [A4U U28A G44U C45U] here?
The self-cleavage was 0.07.

Which self-cleavage does the source give for GGCAGAGCUAAAAAAAGCAUGGAAAAGUGGCUGUGGCUAGACUGCC [C10A C13A C15A G19A C23A] here?
The self-cleavage was 0.04.

Which self-cleavage does the source give for GGCAGAGCUCAACACCGCGUUGCAACGUGGCUGUGGCUAGACUGGC [A16C G21U A26C C45G] here?
The self-cleavage was 0.02.

With GGCAGAUCUCAACAGAGCGCGGCAAAGUGGCUGAGGCUAGACUGCC [G7U C15G U20C U34A] as the variant, how does the self-cleavage read?
The self-cleavage was 0.13.

For GGCAGAUCUCAACACAGCGUGCCAAAGUGGCUGUGGUUAGACUGCC [G7U G22C C37U], which self-cleavage is on record?
The self-cleavage was 0.

For GGCAGAGCUCAGCACAGCGUGUCAAAGUGGCUGUCGCUAGACUGCC [A12G G22U G35C], which self-cleavage is on record?
The self-cleavage was 0.03.

Which self-cleavage does the source give for AGCAGAGUUCAACACAGAGUGCCAAAGUAGCUGUGUCUCGACUGCC [G1A C8U C18A G22C G29A G36U A39C] here?
The self-cleavage was 0.91.

Which self-cleavage does the source give for GGCAGAGCUGAACACAGCGUGGCAAAGUGGCGGUGGCUAGACUACC [C10G U32G G44A] here?
The self-cleavage was 0.

For GGCAGAGAUCAACACAGUGUGGCAAAGUGGCUGAGGCUAGACUGCU [C8A C18U U34A C46U], which self-cleavage is on record?
The self-cleavage was 0.17.

For GGCAGAGCUCAACACAGCGAGGCAAAGUGCCUGUGGCUAGAUUGCC [U20A G30C C42U], which self-cleavage is on record?
Its self-cleavage is 0.14.

For GGCAGCGCUCAACACAGCGUGGCAAAGGGGCUGUUGCUAGACUGCC [A6C U28G G35U], which self-cleavage is on record?
The self-cleavage was 0.07.

With GGCAGAGCUUAAAACAGCGUGGCAAAGUGGCUAUGGCUAGACUGCC [C10U C13A G33A] as the variant, how does the self-cleavage read?
Its self-cleavage is 0.02.

Which self-cleavage does the source give for GGCAGAGCUUAACACAGCGUGGGUAAGUGGCUUAAGCUAGACUGCC [C10U C23G A24U G33U U34A G35A] here?
Its self-cleavage is 0.02.

With GGCACAGCUCAAGACAGCGUGGCAAAGUGGCUGUGACUAGACUGCC [G5C C13G G36A] as the variant, how does the self-cleavage read?
The self-cleavage was 0.

For GGCAGAGCUCGACUCAGCGUGACAAAGUGGGUGUGGCUAGACUGAC [A11G A14U G22A C31G C45A], which self-cleavage is on record?
Its self-cleavage is 0.01.

With GGCAGAGCUCCACACAGCGCGGCAAAGUGGCUGUGGCUAGCCUGCC [A11C U20C A41C] as the variant, how does the self-cleavage read?
Its self-cleavage is 0.02.

With GGCAGAGCUCAACACAGCGUGGCAAAGUGGCUGGGGAUAGACUGCA [U34G C37A C46A] as the variant, how does the self-cleavage read?
The self-cleavage was 0.02.

Which self-cleavage does the source give for GGCAGAGCUCAAGAGAGCGUGGCAAAGUGGCGGUGGCUAGACUGCC [C13G C15G U32G] here?
Its self-cleavage is 0.05.

For GGCAGAGCUCAACAGCGCGUGGCAAAGUGGCUGUGGCUGGACUGCC [C15G A16C A39G], which self-cleavage is on record?
The self-cleavage was 0.05.

With GGCAGAGCUGAACACAGCGUGGCAAAGUGGCUGUGGGUAGAAUGCC [C10G C37G C42A] as the variant, how does the self-cleavage read?
Its self-cleavage is 0.

For GGCAUAGCUCAACACAGCGUGGCAAAGUGCCUGUAGCUAGUCUGCC [G5U G30C G35A A41U], which self-cleavage is on record?
The self-cleavage was 0.03.

For GGUAGAGCUGAACACAGCGUGGCAAAGUGGCUGUGGCUAGACGGCC [C3U C10G U43G], which self-cleavage is on record?
Its self-cleavage is 0.06.

With GGCACAGCUCAACACAGCGUGGCAUAUUGGCUGUGGCUAGACUGCG [G5C A25U G27U C46G] as the variant, how does the self-cleavage read?
Its self-cleavage is 0.02.
